Experimental data as given in ChEMBL document CHEMBL4888484, “Replenishing the malaria drug discovery pipeline: Screening and hit evaluation of the MMV Hit Generation Library 1 (HGL1) against asexual blood stage Plasmodium falciparum ,using a nano luciferase reporter read-out” (2022).
The whole screen tested about 150,000 compounds, of which about 540 (0.36%) showed an effect of 50% or more. This is one part of the list.

What follows are molecules tested on Plasmodium falciparum (assay: Primary screen in NF54 nanoGlo assay, in single point, at 2uM, 72h; a lower Z score goes with more inhibition). Settings: timepoint 72 hour.
Type: functional, Erythrocyte

Row | SMILES | % Inhibition [%] | Z score
1 | O=C(c1ccccc1)N1CCO[C@@H](CS(=O)(=O)NCc2ccccn2)C1 | -3 | 0.37
2 | c1ccc(CCc2nc(CNC3CCOCC3)cs2)cc1 | -13 | 1.3
3 | Cc1ccccc1CNC(=O)c1cccn(-c2ccc(NC(=O)c3ccccc3)cc2)c1=O | -1 | 0.07
4 | COc1cccc(-c2ccc3nc(C(=O)N4CCN(CCN(C)C)CC4)cn3c2)c1 | -17 | 1.7
5 | O=C(Cn1nnnc1CN1CCCC1)NCC(F)(F)F | 1 | -0.15
6 | Cc1cc(C)nc(CN2CCc3occc3[C@@H]2C(=O)O)c1 | 3 | -0.47
7 | COc1cc(NC(=O)CN(Cc2cnn(C)c2)C2CC2)ccc1Cl | -6 | 1.03
8 | O=C(NCc1ccccn1)c1nn(-c2ccccc2F)nc1CO | -7 | 1.31
9 | CC(C)c1csc(CN2CC[C@H](CNS(C)(=O)=O)C2)n1 | -18 | 2.39
10 | O=C(N[C@@H](CCO)C1CCCC1)c1cncnc1-c1ccccc1 | -1 | 0.13
11 | CCn1nc(CC(C)C)cc1C(=O)Nc1ccccc1CN1CCCC1 | -13 | 1.32
12 | Cc1n[nH]c([C@@H]2CN(Cc3cn(C(C)(C)C)nn3)CCO2)n1 | 4 | -0.74
13 | Cc1cc(CC(=O)Nc2nn(Cc3ccccc3)c3cc(OC(C)C)ccc23)on1 | -3 | 0.38
14 | CS(=O)(=O)N1CCC[C@H](Nc2ncccn2)C1 | 10 | -1.56
15 | CCOCC(=O)Nc1cccc(-c2nncn2C)c1C | -10 | 1.29
16 | C[C@@H](c1nnnn1C1CC1)N1CCC(c2nccs2)CC1 | -4 | 0.65
17 | COc1cccc(CN2CC[C@@]23CCCN(C(=O)OC(C)(C)C)C3)c1OC | -3 | 0.57
18 | CCNC(=O)[C@@H]1C[C@@H](NC(=O)c2cnc(C)s2)CN1C(=O)C1CCCC1 | 10 | -1.78
19 | O=C(NCc1nnc2ccccn12)N1CCN(c2ccncc2Cl)CC1 | 2 | -0.31
20 | COc1ccc2c(c1)CCc1c(C(=O)NCC3CCN(Cc4ccccc4F)CC3)n[nH]c1-2 | -19 | 1.7
21 | CN(Cc1ccco1)C(=O)c1c[nH]nn1 | 2 | -0.3
22 | CC(=O)N[C@@H]1c2ccccc2C2(CCN(C(=O)c3ccc4cc[nH]c4c3)CC2)[C@H]1OCc1ccccc1 | 14 | -1.78

Row | SMILES | % Inhibition [%] | Z score
23 | CCN(CC)CC1(NC(=O)c2cccc(C)c2F)CC1 | -7 | 1.37
24 | O=C(CN1CCN(Cc2ccccc2Cl)CC1)Nc1nccs1 | -1 | 0.19
25 | N#Cc1ccnc(N2CC[C@@]3(CCCN(CC4CCCCC4)C3=O)C2)c1 | -9 | 1.85
26 | OCCn1nc(-c2ccco2)nc1CN1CCOCC1 | -10 | 1.83
27 | COC[C@H](C)n1cc(C(=O)NCc2cnc(C)o2)c(C)n1 | -3 | 0.27
28 | CCc1ccc(CC(=O)N[C@H]2CCN(c3ncc[nH]c3=O)C2)nc1 | -8 | 1.06
29 | Cc1ccc([C@H]2CN(Cc3cccc4nonc34)C[C@@H]2N(C)C)cc1 | -5 | 0.61
30 | CC(C)[C@@]1(O)CN(CC(=O)N2CCCCC2)C[C@@H]1C | -12 | 2.44
31 | CCCCS(=O)(=O)N1Cc2c(C(=O)NC3CC3)nn(C)c2C1 | -11 | 1.35
32 | CC(C)CN1CC[C@H](c2nnc(Cc3ccccc3)o2)C1 | -7 | 1
33 | COCc1ccc(CNCc2cc3cc(Cl)c(Cl)cc3[nH]2)cc1 | -13 | 1.44
34 | CCc1csc(CCNC(=O)[C@@H](C)Cn2cccn2)n1 | -11 | 1.12
35 | CCN(Cc1nc(-c2ccc(C)c(OC)c2)no1)[C@H]1CCOC(C)(C)C1 | -16 | 2.04
36 | Cc1ccc(C#N)c(N2CCC[C@H](c3cc(N4CCOCC4)nc(C)n3)C2)n1 | 1 | -0.11
37 | Cc1ccc2c(c1)cc(S(=O)(=O)c1ccccc1)c(=O)n2CC(=O)NCc1ccc2c(c1)OCO2 | 2 | -0.36
38 | NC(=O)CCNS(=O)(=O)c1ccc(Cl)cc1 | -19 | 1.74
39 | CNC(=O)c1c(C)n(C)c2cc(C)cc[n+]12 | -9 | 1.69
40 | Cc1nc(N2CCOCC2)ncc1-c1cc(=O)[nH]c(N2CCC(Cc3ccccc3)CC2)n1 | -19 | 2.68
41 | Nc1c(-c2ccccn2)nsc1C(=O)NC1CCCC1 | -2 | 0.23
42 | CC(Cc1ccsc1)NC(=O)N1CC(C)OC(C)C1 (configuration not stated) | -10 | 2.2
43 | CCOC(=O)c1nnn(Cc2cc(C)on2)c1C | 1 | -0.07
44 | Cc1cc(C)nc(O[C@H]2CC[C@H](NC(=O)N3CCOCC3)CC2)n1 | -1 | 0.14

Row | SMILES | % Inhibition [%] | Z score
45 | CC(C)c1nncn1C1CCN(S(=O)(=O)c2cccc(Cl)c2)CC1 | 1 | -0.12
46 | CC(=O)N1CCN(c2nc(-c3ccccc3Cl)c3c(N)n(C)nc3n2)CC1 | 0 | -0.05
47 | COc1cccc(NC(=O)Nc2ccccc2NC(=O)c2ccccc2Cl)c1 | -5 | 0.57
48 | CCCOc1ccc(CNC(=O)c2cc(S(N)(=O)=O)oc2C)c(C)c1 | 0 | 0.06
49 | Cc1cccc2c(=O)n(CC[C@H]3CCNC3=O)ccc12 | -15 | 2.79
50 | O=C(NCc1nccs1)c1nn(Cc2ccccc2)c2c1CN(C(=O)c1ccccc1)CC2 | 0 | 0.01
51 | O=C(Nc1ccccc1)c1nnc(C(=O)N2CCC[C@H](C(=O)NCCCN3CCOCC3)C2)s1 | 2 | -0.33
52 | O=C(CN(C(=O)c1ccc(F)cc1)C1CC1)Nc1nc(-c2ccccc2)cn1-c1ccc(F)c(Cl)c1 | -16 | 2.3
53 | CCC1(CC)Cc2ccccc2-c2[nH]c(=O)n(-c3ccccc3F)c(=O)c21 | -6 | 0.71
54 | C#CCN(CC=C)C(=O)[C@H]1CCC(=O)N(Cc2ccccn2)C1 | -5 | 0.91
55 | C=CCCC(=O)NCC1CCN(C(=O)OC)CC1 | -6 | 0.89
56 | CC(C(=O)NC1CCS(=O)(=O)C1)N1CC=CCC1 (configuration not stated) | -16 | 1.64
57 | CCc1ncc(CN2CCO[C@@H](CCOC)C2)cn1 | 8 | -1.19
58 | C[C@@H](COc1ccccc1)N1CCC(CCC(=O)N2CCCC2)CC1 | 7 | -0.82
59 | O=C(C1CCCN1C1CC1)N1CCCC2(CCCOC2)C1 (configuration not stated) | 0 | 0.05
60 | Cc1cc(-c2ccc(S(=O)(=O)Nc3ccc(F)cc3C)s2)[nH]n1 | 2 | -0.47
61 | Cc1cccc2nc(CN3CCC[C@H](Cn4cncn4)C3)cn12 | 5 | -0.75
62 | CCn1cc(NS(=O)(=O)c2ccc3c(c2)CC(Cl)(Cl)C3=O)cn1 | -6 | 0.87
63 | COc1ccc(-c2ccc(CNC(=O)Cn3cnnn3)s2)cc1 | 14 | -1.67
64 | CN(C)Cc1cc(NC(=O)NCc2noc3c2COCC3)ccn1 | -2 | 0.35
65 | Cc1cc(C)n(CC2(CNC(=O)c3cn4cc(Cl)ccc4n3)CC2)n1 | -9 | 1.7
66 | CC(Cc1cccs1)NC(=O)C1COCCN1CC(F)(F)F (configuration not stated) | -6 | 1.15

Row | SMILES | % Inhibition [%] | Z score
67 | NS(=O)(=O)CCCN1CCOc2ccc(Br)cc2C1 | -3 | 0.43
68 | CS(=O)(=O)c1cc(NC(=O)NC2(c3c(F)cccc3F)CCC2)ccc1F | -4 | 0.59
69 | C[C@H]1CN(CCCNC(=O)c2ccsn2)CCCO1 | -11 | 1.77
70 | Cc1scc(C(=O)NCc2ncc(C(F)(F)F)cn2)c1C | -12 | 1.84
71 | COc1ccccc1NC(=O)Cn1c(-c2nc(-c3ccccc3F)no2)cccc1=O | -13 | 1.25
72 | Cc1nccc(C2CCN(C(=O)Nc3ccc4oc(C)cc4c3)CC2)n1 | -3 | 0.38
73 | Cc1oc(-c2ccccc2)cc1C(=O)N1CCC(n2ccnn2)CC1 | -15 | 2.46
74 | CN(CCN1CCN(c2ccccc2)CC1)CCN1CCCC1=O | 0 | 0.02
75 | CNC(=O)C[C@H](C)N(C)Cc1cc(Cl)c(OC)cc1OC | -3 | 0.48
76 | CC(C)(C)OC(=O)N1CCC[C@@H]1CNC(=O)c1ccc2nncn2c1 | -20 | 1.88
77 | N#CCN(c1cccc(Cl)c1)S(=O)(=O)c1cccn2cnnc12 | -14 | 1.73
78 | CC(C)(CO)Nc1ccc(Br)cn1 | -1 | 0.07
79 | COc1ccccc1[C@@H]1CC(c2cccn2C)=NN1C(=O)CN(CCN1CCOCC1)C(C)=O | 37 | -4.99
80 | CC1=CCC(NC2CCCn3ncnc32)CC1 (configuration not stated) | 1 | -0.23
81 | CC(NC(=O)c1cncc(Br)c1)C1CC2CCC1C2 (configuration not stated) | -6 | 0.91
82 | Cc1cccc(-c2noc(CN3CCC(n4cncn4)CC3)n2)c1 | 0 | -0.08
83 | Cc1ccc([C@H]2N(c3cccc(Cl)c3)C(=O)[C@@H]3CCCN32)o1 | 6 | -0.83
84 | CCN(CC(=O)Nc1ccn(C)n1)C[C@H](O)c1cccc(O)c1 | -9 | 1.38
85 | CCn1nc(C(=O)N2CCCCC[C@H]2C(F)(F)F)ccc1=O | 2 | -0.27
86 | CN(CCC(=O)c1ccc(F)cc1)CC(F)F | 5 | -0.65
